# Results published in publication PMC4336329 (PLoS ONE, 2015).
# Out of some 310,000 compounds screened, about 2,200 (0.71%) showed an effect of 50% or more. Effects have a minus sign here. This is one part of the list.
# Target: human ether-à-go-go-related gene (hERG) potassium channel (human, UniProt Q12809)
# Test: primary screen, population patch clamp on CHO cells stably expressing hERG
# Chain of human ether-à-go-go-related gene (hERG) potassium channel (Q12809 whole entry, looked up): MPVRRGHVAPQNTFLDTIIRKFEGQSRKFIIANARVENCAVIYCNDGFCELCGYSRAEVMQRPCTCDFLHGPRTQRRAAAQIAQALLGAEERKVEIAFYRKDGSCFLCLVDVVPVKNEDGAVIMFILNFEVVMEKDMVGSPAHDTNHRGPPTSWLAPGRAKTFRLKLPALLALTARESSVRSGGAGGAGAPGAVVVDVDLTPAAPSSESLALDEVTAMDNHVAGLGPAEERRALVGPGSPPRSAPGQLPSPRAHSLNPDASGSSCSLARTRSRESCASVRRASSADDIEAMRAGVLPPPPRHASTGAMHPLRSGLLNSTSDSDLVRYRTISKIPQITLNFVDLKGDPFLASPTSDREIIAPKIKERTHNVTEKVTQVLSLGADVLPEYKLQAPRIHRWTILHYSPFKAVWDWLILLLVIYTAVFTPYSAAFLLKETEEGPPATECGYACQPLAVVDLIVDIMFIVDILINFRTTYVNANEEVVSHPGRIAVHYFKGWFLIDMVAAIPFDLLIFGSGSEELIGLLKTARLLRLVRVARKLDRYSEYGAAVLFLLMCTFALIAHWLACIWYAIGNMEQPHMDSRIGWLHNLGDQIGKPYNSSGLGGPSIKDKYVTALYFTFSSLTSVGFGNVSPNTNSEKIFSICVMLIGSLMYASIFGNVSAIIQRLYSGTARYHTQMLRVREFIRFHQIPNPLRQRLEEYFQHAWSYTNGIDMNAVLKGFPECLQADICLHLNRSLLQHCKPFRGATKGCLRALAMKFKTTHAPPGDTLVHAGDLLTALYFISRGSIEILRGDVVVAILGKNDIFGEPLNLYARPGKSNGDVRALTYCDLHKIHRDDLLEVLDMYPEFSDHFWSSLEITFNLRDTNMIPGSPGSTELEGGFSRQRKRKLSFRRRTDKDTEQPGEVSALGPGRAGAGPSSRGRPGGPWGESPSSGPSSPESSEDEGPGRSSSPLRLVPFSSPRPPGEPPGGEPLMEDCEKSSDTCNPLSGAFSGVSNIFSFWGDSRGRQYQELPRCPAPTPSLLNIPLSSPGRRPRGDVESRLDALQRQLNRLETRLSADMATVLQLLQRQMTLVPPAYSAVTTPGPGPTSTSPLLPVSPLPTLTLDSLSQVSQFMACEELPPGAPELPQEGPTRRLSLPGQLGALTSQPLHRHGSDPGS
row,Structure (SMILES),"hERG current change (%, negative = inhibition) at 1uM [%]"
1,COC(=O)c1cccc(NC(=O)c2cccnc2C(=O)O)c1C,20.9
2,CC(Cc1cccs1)NC(=O)c1cccs1 (centres unmarked),13.8
3,COc1ccc(S(=O)(=O)NCC2CCCN(C(=O)CSC)C2)cc1 (centres unmarked),26.5
4,CCOC(=O)N1CCC(N2CC34C=CC(O3)C(C(=O)Nc3ccc(C(C)C)cc3)C4C2=O)CC1 (centres unmarked),-0.951
5,Cc1cc(C)cc(-n2c(C)c3c(C)nnc(C)c3c2C)c1,0.294
6,NC(=O)CSc1nnc(-c2ccc(S(=O)(=O)N3CCCCC3)cc2)n1-c1ccccc1,4.46
7,Cc1ncc(CO)c2c1Oc1nc(-c3ccccc3)nc(SCC(=O)N(C)c3ccccc3)c1C2,9.6
8,COC(=O)NC1CSCC1OC(=O)CN1C(=O)c2ccccc2C1=O (centres unmarked),6.52
9,Cc1c(Cl)ccc2c(C(=O)NCCN3CCCCC3)cc(-c3ccccn3)nc12,8.77
10,Cc1cccc(N(Cc2ccccc2)C(=O)c2cc(S(=O)(=O)N3CCOCC3)ccc2Cl)c1,5.46
11,CCn1c(SCC(=O)N2CCCC2)nc2c1c(=O)n(C)c(=O)n2C,3.58
12,CCOc1ccc(-c2nc(C#N)c(NCC3CCCO3)o2)cc1 (centres unmarked),-2.32
13,Cc1nc(N)sc1-c1nnc(SCC(=O)Nc2ccccc2C(F)(F)F)n1C,15.3
14,Cc1cccc(C)c1NC(=S)NCCSc1ccc(Cl)cc1,11.3
15,CCOC(=O)CCCNC(=O)c1cncc(Br)c1,5.35
16,O=C1[C@@H]2[C@@H]3C[C@@H]([C@H]4ON=C(c5ccc(Cl)cc5)[C@@H]34)[C@@H]2C(=O)N1C1CCCCC1,8.61
17,Cc1cc(C)n(CC(=O)NNC(=O)COc2ccc(F)cc2Br)n1,5.97
18,CCOC(=O)C1CCN(CCC(=O)Nc2ccc(Cl)cc2)CC1,-32.4
19,Cl.OC(COc1ccc2c(c1)CCC2)CN1CCN(c2cccc(Cl)c2)CC1 (centres unmarked),-9.33

row,Structure (SMILES),"hERG current change (%, negative = inhibition) at 1uM [%]"
1,O=C(Nc1cccnc1)c1cc(S(=O)(=O)N2CCCCC2)c(Cl)cc1Cl,8.31
2,CC1CC(C)CN(C(=O)CSc2nnc(N)s2)C1 (centres unmarked),9.08
3,CCSc1nc2ccccc2n1Cc1nc(N)nc(N(C)C)n1,9.82
4,O=c1cc([O-])nc(SCc2ccccc2)n1-c1ccc(F)cc1.[K+],-1.35
5,Cc1ccccc1C(=O)Nc1ccccc1-c1nnn(CC(=O)Nc2ccc3c(c2)OCCO3)n1,2.38
6,C/C(=N\NC(=O)Cc1cc(=O)[nH][nH]1)c1cccc([N+](=O)[O-])c1,9.22
7,O=C(NNc1ccc(Cl)cc1)c1cccs1,9.61
8,O=C(C[n+]1cc(-c2ccccc2)n2c1CCCCC2)c1ccc(Br)cc1.[Br-],-6.56
9,Cn1c(N)c(S(=O)(=O)NCc2ccccc2Cl)c(=O)n(C)c1=O,-0.821
10,Cc1c(NC(=O)c2cccc(NC(=O)Cc3c(F)cccc3Cl)c2)c(=O)n(-c2ccccc2)n1C,4.85
11,Cc1ccc(C2(C(F)(F)F)NC(=O)N3CCCN=C3S2)cc1 (centres unmarked),22.8
12,COc1ccccc1-c1ccc(SCc2cccc(F)c2)nn1,3.52
13,CCN(CC)CCN1C(=O)C(=O)/C(=C(/O)c2c(C)[nH]c(C(=O)OC)c2C)C1c1ccc(C)o1 (centres unmarked),12.6
14,c1ccc(CCNc2nc(-c3ccncc3)nc3ccccc23)cc1,7.94
15,COc1ccc(-c2nn(-c3ccccc3)cc2CNC(=O)c2cccc([N+](=O)[O-])c2)cc1,14.6
16,COc1ccccc1CNC(=O)COC(=O)c1nccnc1N,17.8
17,COc1ccc2c(c1)nc(SCC(O)c1ccccc1)n2C (centres unmarked),-2.85
18,COc1ccc(COC(=O)N/N=C(\C)CC(=O)Nc2ccc(Cl)cc2)cc1,-9.18
19,Cn1c(C(=O)NC2CCCCC2)cc2sccc21,-2.26

row,Structure (SMILES),"hERG current change (%, negative = inhibition) at 1uM [%]"
1,O=C(Nc1ccc(C(=O)O)cc1)/C(=C\c1cccc([N+](=O)[O-])c1)NC(=O)c1ccc(Br)o1,14.3
2,CN(C)/N=C/c1ccc(Sc2ccc([N+](=O)[O-])cc2[N+](=O)[O-])o1,13.4
3,CCN(CC)C(=O)C(=O)c1cccn1-c1c(Cl)cccc1C#N,9.45
4,CN1CCN(C(=O)/C=C/c2c(F)cccc2Cl)CC1,8.16
5,CN1CCN(Cc2nc3ccccc3c(=O)n2Cc2nc(-c3ccc([N+](=O)[O-])cc3)cs2)CC1,-45.8
6,O=C(CSc1nc2ccccc2c(=O)n1-c1ccccc1F)NC1CCS(=O)(=O)C1 (centres unmarked),-28.6
7,CCOC(=O)N/N=C/c1cn(Cc2ccc(F)cc2)c2ccccc12,12.5
8,CCC(Sc1nc2ccncc2[nH]1)C(=O)Nc1ccc(C)c(Cl)c1 (centres unmarked),4.57
9,CN(Cc1ccc(F)cc1)C(=O)c1sccc1-c1ccccc1,10
10,Cc1cc(C)n(C(=O)C23CC4CC(CC(C4)C2)C3)n1,15.4
11,CCCCc1cc2c(cc1NC(=O)CN1CCCCC1)OCCO2.Cl,10.1
12,Oc1ccc(CN2CCN(c3ccccc3)CC2)c2cccnc12,12.4
13,Cc1ccc(-c2nn(-c3ccccc3)cc2CO)o1,10.3
14,CC1C(C#N)=C(N)OC2=C1C(=O)CC(c1ccccc1)C2 (centres unmarked),8.16
15,CC(C)OCCCNC(=O)C(NC(=O)c1ccc(Cl)cc1)C(C)C (centres unmarked),3.29
16,Cc1c(N=C2SCC(=O)N2/N=C/c2ccccc2)c(=O)n(-c2ccccc2)n1C,-0.892
17,Cc1cc(NC(=O)CSc2nnc(-c3ccccc3F)n2C)no1,8.69
18,Cc1cc(=O)[nH]c2nnc(SCC(=O)N3CC(C)OC(C)C3)n12 (centres unmarked),11.3
